Reference: the antibiotic and cytotoxicity screens of Wong et al. (2023)
The list shows a part of the results.

Key:
HSkMC = human skeletal muscle cells; test: cytotoxicity call (relative viability < 0.9); settings: 10 µM
HepG2 = test: cytotoxicity call (relative viability < 0.9); settings: 10 µM
S. aureus RN4220 = test: growth inhibition call (relative growth <= 0.2); settings: 50 µM

SMILES	cytotoxicity call (HSkMC)	cytotoxicity call (HepG2)	growth inhibition call (S. aureus RN4220)
C[C@@H]1CCCCO[C@H](CN(C)Cc2ccc(C(F)(F)F)cc2)[C@@H](C)CN([C@@H](C)CO)C(=O)c2cc(NC(=O)C3CCCCC3)ccc2O1	inactive	active	inactive
C=CC(C)(C)c1[nH]c2ccccc2c1C1=C(O)C(=O)C(c2c[nH]c3c(CC=C(C)C)cccc23)=C(O)C1=O	active	inactive	inactive
Cc1ccc(S(=O)(=O)Nc2ccc3c(c2)CC(=O)N([C@@H](C)CO)C[C@@H](C)[C@@H](CN(C)S(=O)(=O)c2ccccc2)O3)cc1	inactive	inactive	inactive
Cc1noc(C)c1S(=O)(=O)Nc1ccc2c(c1)C(=O)N([C@H](C)CO)C[C@@H](C)[C@@H](CN(C)C(=O)Nc1ccc(C(F)(F)F)cc1)OCCCC[C@@H](C)O2	inactive	active	inactive
C[C@@H]1CN([C@@H](C)CO)C(=O)Cc2cc(NS(=O)(=O)c3ccc(F)cc3)ccc2O[C@H]1CN(C)S(=O)(=O)c1ccccc1	inactive	inactive	inactive
Nc1ncn(C[C@@H](O)CO)c2nc(Br)nc1-2	inactive	inactive	inactive
Cc1noc(C)c1S(=O)(=O)Nc1ccc2c(c1)C(=O)N([C@@H](C)CO)C[C@@H](C)[C@H](CN(C)Cc1ccc(Cl)c(Cl)c1)OCCCC[C@@H](C)O2	inactive	inactive	inactive
O=C(C[C@@H]1C[C@@H]2c3cc(NC(=O)NC4CCCC4)ccc3O[C@@H]2[C@H](CO)O1)NCc1ccc(-c2ccccc2)cc1	inactive	inactive	inactive
NC(Cc1cc(I)c(Oc2cc(I)c(O)c(I)c2)c(I)c1)C(=O)[O-].[Na+] (stereo not drawn)	inactive	inactive	inactive
CSc1nc2ccc(N)cc2s1	inactive	inactive	inactive
COc1ccc(cc1)S(=O)(=O)N1C[C@]2(CN(Cc3ccncc3)[C@@H](CO)c3[nH]c4cc(ccc4c32)OC)C1	inactive	inactive	inactive
Cc1ccc(S(=O)(=O)N(C)C[C@H]2Oc3ccc(NC(=O)C4CC4)cc3C(=O)N([C@H](C)CO)C[C@@H]2C)cc1	inactive	inactive	inactive
Nc1ccccc1C(=O)C[C@H](N)C(=O)O	inactive	inactive	inactive
CO[C@@H]1CN(C)C(=O)c2ccc(NC(=O)CN(C)C)cc2OC[C@@H](C)N(C(=O)C2CCOCC2)C[C@H]1C	inactive	inactive	inactive
Cc1noc(C)c1NC(=O)N(C)C[C@H]1Oc2c(NC(=O)NC(C)C)cccc2C(=O)N([C@H](C)CO)C[C@@H]1C	inactive	inactive	inactive
Cc1noc(C)c1S(=O)(=O)Nc1ccc2c(c1)C(=O)N([C@@H](C)CO)C[C@@H](C)[C@@H](CN(C)C)OCCCC[C@@H](C)O2	inactive	inactive	inactive
CN1CCN(C(=O)C[C@H]2C[C@H]3c4cc(NS(=O)(=O)c5ccc(F)cc5)ccc4O[C@H]3[C@@H](CO)O2)CC1	inactive	inactive	inactive
C[C@@H]1CCCCO[C@H](CN(C)C(=O)CCC(F)(F)F)[C@H](C)CN([C@H](C)CO)C(=O)c2cc(NS(=O)(=O)c3ccc(F)cc3)ccc2O1	inactive	inactive	inactive
C[C@@H]1CCCCO[C@H](CN(C)C(=O)C2CCCCC2)[C@H](C)CN([C@H](C)CO)C(=O)c2cc(NC(=O)Cc3ccccc3)ccc2O1	inactive	inactive	inactive
C[C@@H]1CN([C@@H](C)CO)C(=O)c2cc(NC(=O)C3CCCCC3)ccc2O[C@@H](C)CCCCO[C@@H]1CN(C)C(=O)c1ccccc1	inactive	inactive	inactive
COc1cccc(CNC(=O)C[C@H]2C=C[C@H](NC(=O)C3CCOCC3)[C@@H](CO)O2)c1	inactive	inactive	inactive

SMILES	cytotoxicity call (HSkMC)	cytotoxicity call (HepG2)	growth inhibition call (S. aureus RN4220)
C[C@@H]1CN([C@H](C)CO)C(=O)c2cc(C#Cc3cccc(F)c3)cnc2O[C@H]1CN(C)CC1CCOCC1	inactive	inactive	inactive
Cn1c(=O)c(=O)n(C)c2cc(S(=O)(=O)N3CCC[C@@H]3C(=O)O)ccc21	inactive	inactive	inactive
COc1ccccc1-c1cnc2c(c1)C(=O)N([C@H](C)CO)C[C@@H](C)[C@H](CN(C)C(=O)c1cccnc1)O2	inactive	inactive	inactive
O=C(N[C@H]1CCN(C(=O)c2cc(C(F)(F)F)cc(C(F)(F)F)c2)[C@H](Cc2ccc(Cl)cc2)C1)c1ccnc2ccccc12	active	inactive	inactive
C[C@H](CO)N1C[C@H](C)[C@@H](CN(C)C(=O)Nc2ccc(C(F)(F)F)cc2)Oc2ccc(NC(=O)Cn3cnnn3)cc2CC1=O	inactive	inactive	inactive
C[C@@H]1CCCCO[C@@H](CN(C)S(=O)(=O)c2ccc(Cl)cc2)[C@H](C)CN([C@@H](C)CO)C(=O)c2cc(NC(=O)CCC(F)(F)F)ccc2O1	inactive	active	inactive
COc1ccc(CN(C)C[C@@H]2OCCCC[C@@H](C)Oc3ccc(NS(=O)(=O)c4c(C)noc4C)cc3C(=O)N([C@@H](C)CO)C[C@H]2C)cc1	inactive	inactive	inactive
C[C@@H]1CCCCO[C@H](CN(C)Cc2ccccc2)[C@@H](C)CN([C@@H](C)CO)C(=O)c2cc(NS(=O)(=O)c3ccc(F)cc3)ccc2O1	inactive	inactive	inactive
CS(=O)(=O)c1ccc(S(C)(=O)=O)s1	inactive	inactive	inactive
CC(C)[N+](C)(CCOC(=O)C1c2ccccc2Oc2ccccc21)C(C)C.[Br-]	inactive	inactive	inactive
Cc1noc(C)c1S(=O)(=O)Nc1ccc2c(c1)C(=O)N([C@H](C)CO)C[C@H](C)[C@@H](CN(C)Cc1ccccc1)OCCCC[C@H](C)O2	inactive	inactive	inactive
C[C@H]1CN([C@@H](C)CO)C(=O)Cc2cc(NC(=O)Cn3cnnn3)ccc2O[C@@H]1CN(C)S(C)(=O)=O	inactive	inactive	inactive
C[C@@H]1CCCCO[C@H](CN(C)Cc2ccc(C(=O)O)cc2)[C@@H](C)CN([C@H](C)CO)C(=O)c2cc(NS(=O)(=O)c3ccccc3)ccc2O1	inactive	inactive	inactive
COc1ccc2c3c(n(c2c1)C)[C@@H](CO)N(C[C@]13CCN(CC1)C(=O)Nc1cccc(c1)F)C(=O)CN1CCOCC1	inactive	inactive	inactive
COc1c(OC)c2occc2c2oc(=O)ccc12	inactive	inactive	inactive
N=C(N)NCc1cn(CC(=O)N2CCN(c3ccccc3)CC2)nn1	inactive	inactive	inactive
C[C@H]1CCCCO[C@H](CN(C)Cc2ccc(C(=O)O)cc2)[C@@H](C)CN([C@@H](C)CO)C(=O)c2cc(NS(=O)(=O)c3cccs3)ccc2O1	inactive	inactive	inactive
C[C@@H]1CCCCO[C@@H](CN(C)Cc2ccccc2)[C@H](C)CN([C@@H](C)CO)C(=O)c2cc(NC(=O)Nc3cccc4ccccc34)ccc2O1	inactive	inactive	inactive
CC(C)NC(=O)N(C)C[C@@H]1Oc2ncc(-c3ccc(C(=O)N(C)C)cc3)cc2C(=O)N([C@H](C)CO)C[C@@H]1C	inactive	inactive	inactive
Cn1nc2c(c1N)CCC2	inactive	inactive	inactive
